The values that follow come from the RNAGym collection of RNA variant scans (doi:10.1073/pnas.2313332121).

This sample is rich in variants without activity.

B1: TPR 5TU (parent)
chain: GGAUCUUCUCGAUCUAACAAAAAAGACAAAUCUGCCACAAAGCUUGAGAGCAUCUUCGGAUGCAGAGGCGGCAGCCUUCGGUGGCGCGAUAGCGCCAACGUUCUCAACUAUGACACGCAAAACGCGUGCUCCGUUGAAUGGAGUUUAUCAUG

Variants of B1 are the subject of the data set. Put plainly: polymerase ribozyme fitness, log enrichment relative to wild type (log ratio); higher = more active; in vitro selection for triplet polymerase activity. In short, it runs like this: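 PCR was used to build mutant libraries for each subunit of a heterodimeric triplet polymerase ribozyme, which were then transcribed. A single in vitro selection round, in triplicate, used a frozen incubation at −7 °C and recovered extended constructs by gel excision, streptavidin beads and RT-PCR. Fitness is the logarithm of genotype enrichment relative to wild-type enrichment, averaged over replicates with inverse-variance weights. The logarithm is base 2, and after Illumina sequencing only genotypes with ≥10 input reads and ≥1 read per output were kept.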
For the variant A21C C27A C95U U134G A138C, the “polymerase ribozyme fitness (log ratio)” value was at most -4.2.
For A21U C27G C93U A138C A147C the value was at most -4.2; for A21C G34A C43U A60C A64G A91U, at most -4.2.
On to A21G C36G U78A C103G U134C, for which the “polymerase ribozyme fitness (log ratio)” value was at most -4.2.
For A21G A52U C85U G94U A98U C116U the value was -1.64; for A21C U55G C93U G126U, -0.141; for A21C C36A C95G, -3.86.
To A21G U45A U78G C79A U109G A110G U145A A150G belongs at most -4.2; to A20U U33A G136C, at most -4.2.
Consider A21C A28C C54G G58C C85U A120U G143U, for which the “polymerase ribozyme fitness (log ratio)” value was at most -4.2.
Take A21G A49C G62C A66G G71C A106G: the “polymerase ribozyme fitness (log ratio)” value is at most -4.2.
Consider A21U A41C G86A G100U A110C, for which the “polymerase ribozyme fitness (log ratio)” value was at most -4.2.
Consider A21C A28C A40C U109G G133U U134A, for which the “polymerase ribozyme fitness (log ratio)” value was at most -4.2.
To A21C G46U U78G C96A G141C belongs at most -4.2; to A21G A60G C63A C93G, -3.23.
For A21G U55A C57U A107C C129U the value was at most -4.2; for A21U A73U U90A, at most -4.2.
To A21U A22U U45A U55G G86U A110C belongs at most -4.2.
Take A21G C27G U33C G62U G81U C96U C105A A113U A122U: the “polymerase ribozyme fitness (log ratio)” value is at most -4.2.
To A21U A26U C57U G84U belongs -3.6; to A20U U31G C43G A52U A73C C93U G94U C116G A121G C149U, at most -4.2.
For A21G A22G G25U U55A G71C G92A U102G C125U G126A the value was at most -4.2.
To A21G A73G C85A C103U A122U belongs -1.86.
With A21G C57A G81C A97G U101C U135C, the “polymerase ribozyme fitness (log ratio)” value is -1.99.
To A21G U53A C57A G68A C69U C93U G140U belongs at most -4.2; to A21U A26C C69A G84U, -3.67.
In the case of A21C G48A C76G U127A, the “polymerase ribozyme fitness (log ratio)” value was at most -4.2.
Turning to A20U G62U G86A A107U G140A, the “polymerase ribozyme fitness (log ratio)” value was at most -4.2.
Regarding A21U A39C G84U A97U U134A U139C A142U U148G, the “polymerase ribozyme fitness (log ratio)” value is at most -4.2.
To A20U G94A belongs -1.88.
As for A21C U61A A89U U90G G100U G136A A138C U144G, the “polymerase ribozyme fitness (log ratio)” value is at most -4.2.
To A21C U148A belongs -3.11; to A21C C54G G58A U90A C95U, at most -4.2; to A21C A52G A64U G94A C108A U135A, at most -4.2.
To A21U A23G C54A U77G C79U C87A belongs at most -4.2; to A21C C63U A73C C95A A98U, -3.29; to A21C A26C A28C G70U A107C A147C, at most -4.2.
For A20U U31C U44G U56G G62A G141C the value was at most -4.2; for A21C G59A A113G, -1.92; for A21C U56G C85A C87U G92A, -3.51.
For A21U A39C G58A G94C C125G U148G, the “polymerase ribozyme fitness (log ratio)” value was at most -4.2.
To A21C U45A A64G G92A belongs -3.46; to A21U A91G U139C, at most -4.2.
For A21G A24U U53A G94A, the “polymerase ribozyme fitness (log ratio)” value was -0.529.
For A21U A64C U145G the value was at most -4.2.
To A21C C32G G50A C93U A119U belongs at most -4.2; to A20U U56A A64C A107G G126U, at most -4.2.
To A21G G50U U56G A73U A113U belongs at most -4.2; to A21C A22U A89U G92C G94U G141A, at most -4.2.
As for A21C U61A G83U C105A, the “polymerase ribozyme fitness (log ratio)” value was at most -4.2.
To A21U A29U G46C C72A G84U C105U U145C belongs at most -4.2; to A21C A49U C54U C85G G117A G124U, -3.06; to A20U U55A A147C, -2.31.
To A21U A39U C79G G86A belongs at most -4.2; to A21G A52G G59U G92C A107U, at most -4.2.
To A21G G84A A97C C103G G141A belongs at most -4.2.
Turning to A21G G86C A91U C95U, the “polymerase ribozyme fitness (log ratio)” value is at most -4.2.
To A21C A28U G59C A97G U134C belongs at most -4.2.
For A21C C27A A52G U56A G92U A113G U139A the value was at most -4.2; for A21C A52C U56A C85G C93G A98U, at most -4.2; for A21C A24C A49G U134G U145A, at most -4.2.
For A21G A91U A110G U135C the value was at most -4.2; for A21G C85G G86A, at most -4.2; for A21C A30C A52U G65U G92U A115C C116A, at most -4.2.
For the variant A21G A39C U78A C85G U102G C118G, the “polymerase ribozyme fitness (log ratio)” value was at most -4.2.
To A21C C27U C76A G84A C95A G126A G141A A150C belongs at most -4.2; to A21C C36A U55C, at most -4.2.
For A21G A29C G48A C57U G68A G81C the value was at most -4.2; for A21C G42A C54A C96G U102G, at most -4.2; for A21G A47U A60C C87A C114U, at most -4.2.
For A21C A37G U78C G81U G88U C96U U111A U148C, the “polymerase ribozyme fitness (log ratio)” value was at most -4.2.
Turning to A21C C38U G46C U53G G88U A122U G126A U135C C149G, the “polymerase ribozyme fitness (log ratio)” value was at most -4.2.
To A21C G25A G92A G133U A150G belongs at most -4.2.
For A21C U82A C129G U139A the value was at most -4.2; for A21U A91G, -2.85.
Take A21G G46C U82G G88U C95G A98C: the “polymerase ribozyme fitness (log ratio)” value was at most -4.2.
To A21G C35A C43U G81A A121U A150C belongs at most -4.2; to A21C C51U A66G C85G, at most -4.2.
To A21G A52C G68A G71A U78G U90G C116U belongs at most -4.2.
As for A21U A29C A39C A40C C43U, the “polymerase ribozyme fitness (log ratio)” value was at most -4.2.
For A21G C93A C103U the value was -1.75; for A21U A73G C96U A115G U127A, at most -4.2.
Turning to A21C C51A G83U G128U C131G, the “polymerase ribozyme fitness (log ratio)” value was at most -4.2.
For A21C C75G C96G C131G the value was -4.13.
